We go through four sequences from the supplement of paper PMC12230231.

± gives the standard deviation of the averaged measurements. Restriction of a single-cycle SIVsab GFP reporter by TRIM5α v1-loop variants in CRFK cells. Human variants: read share among cells still uninfected after two challenges over input, higher = gained restriction. Rhesus variants: share among infected cells over input, higher = lost restriction. Reporter dose not given per row. No active / inactive call per row; the paper calls a change when both replicates lie above its controls (mean + 2 SD of stop or wild-type variants, or the top frameshift score). Residues outside the varied loop are taken from Swiss-Prot. The paper reads the human single-substitution scores as noise; they and the rhesus combinations repeat poorly (rank correlation 0.3 to 0.4), indel scores repeat only for the top variants, rhesus substitutions well (0.9).

This series relates to SIVsab (simian immunodeficiency virus of sabaeus monkeys), single-cycle GFP reporter, in CRFK cells. Briefly: enrichment among uninfected cells over input (fold); higher = stronger restriction. The following applies: library: human / rhesus combinations. As to the method:
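Pools of CRFK cells expressing variants of the TRIM5α v1 loop were challenged with the single-cycle reporter, sorted by GFP and sequenced; mean of two replicates.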
On to “MASGILVNVKEEVTCPICLELLTQPLSLDCGHSFCQACLTANHKKSMLDKGESSCPVCRISYQPENIRPNRHVANIVEKLREVKLSPEGQKVDHCARHGEKLLLFCQEDGKVICWLCERSQEHRGHHTFLTEEVAREYQVKLQAALEMLRQKQQEAEELEADIREEKASWKTQIQYDKTNVLADFEQLRDILDWEESNELQNLEKEEEDILKSLTNSETEMVQQTQSLRELISDLEHRLQGSVMELLQGVDGVIKRTENVTLKKPETFPKNQRRVFRAPDLKGMLEVFRELTDVRRYWVDVTVAPNNISCAVISEDKRQVSSPKPQIIYQAPGTLYTFQTFTNFNYCTGILGSQSITSGKHYWEVDVSKKTAWILGVCAGFQPDAMCNIEKNENYQPKYGYWVIGLEEGVKCSAFQDSSFHTPSVPFIVPLSVIICPDRVGVFLDYEACTVSFFNITNHGFLIYKFSHCSFSQPVFPYLNPRKCGVPMTLCSPSS [human TRIM5α, 330-340 = QAPGTLYTFQTFT]”, for which the enrichment is 0.508 ± 0.13.

Consider “MASGILVNVKEEVTCPICLELLTQPLSLDCGHSFCQACLTANHKKSMLDKGESSCPVCRISYQPENIRPNRHVANIVEKLREVKLSPEGQKVDHCARHGEKLLLFCQEDGKVICWLCERSQEHRGHHTFLTEEVAREYQVKLQAALEMLRQKQQEAEELEADIREEKASWKTQIQYDKTNVLADFEQLRDILDWEESNELQNLEKEEEDILKSLTNSETEMVQQTQSLRELISDLEHRLQGSVMELLQGVDGVIKRTENVTLKKPETFPKNQRRVFRAPDLKGMLEVFRELTDVRRYWVDVTVAPNNISCAVISEDKRQVSSPKPQIIYQAPGTLYTFQTFVNFNYCTGILGSQSITSGKHYWEVDVSKKTAWILGVCAGFQPDAMCNIEKNENYQPKYGYWVIGLEEGVKCSAFQDSSFHTPSVPFIVPLSVIICPDRVGVFLDYEACTVSFFNITNHGFLIYKFSHCSFSQPVFPYLNPRKCGVPMTLCSPSS [human TRIM5α, 330-340 = QAPGTLYTFQTFV]”, for which the enrichment came out at 0.101 ± 0.073.

Take “MASGILVNVKEEVTCPICLELLTQPLSLDCGHSFCQACLTANHKKSMLDKGESSCPVCRISYQPENIRPNRHVANIVEKLREVKLSPEGQKVDHCARHGEKLLLFCQEDGKVICWLCERSQEHRGHHTFLTEEVAREYQVKLQAALEMLRQKQQEAEELEADIREEKASWKTQIQYDKTNVLADFEQLRDILDWEESNELQNLEKEEEDILKSLTNSETEMVQQTQSLRELISDLEHRLQGSVMELLQGVDGVIKRTENVTLKKPETFPKNQRRVFRAPDLKGMLEVFRELTDVRRYWVDVTVAPNNISCAVISEDKRQVSSPKPQIIYQAPGTLYTFQTLTNFNYCTGILGSQSITSGKHYWEVDVSKKTAWILGVCAGFQPDAMCNIEKNENYQPKYGYWVIGLEEGVKCSAFQDSSFHTPSVPFIVPLSVIICPDRVGVFLDYEACTVSFFNITNHGFLIYKFSHCSFSQPVFPYLNPRKCGVPMTLCSPSS [human TRIM5α, 330-340 = QAPGTLYTFQTLT]”: the enrichment amounted to 0.346 ± 0.35.

Regarding “MASGILVNVKEEVTCPICLELLTQPLSLDCGHSFCQACLTANHKKSMLDKGESSCPVCRISYQPENIRPNRHVANIVEKLREVKLSPEGQKVDHCARHGEKLLLFCQEDGKVICWLCERSQEHRGHHTFLTEEVAREYQVKLQAALEMLRQKQQEAEELEADIREEKASWKTQIQYDKTNVLADFEQLRDILDWEESNELQNLEKEEEDILKSLTNSETEMVQQTQSLRELISDLEHRLQGSVMELLQGVDGVIKRTENVTLKKPETFPKNQRRVFRAPDLKGMLEVFRELTDVRRYWVDVTVAPNNISCAVISEDKRQVSSPKPQIIYQAPGTLYTFQTLVNFNYCTGILGSQSITSGKHYWEVDVSKKTAWILGVCAGFQPDAMCNIEKNENYQPKYGYWVIGLEEGVKCSAFQDSSFHTPSVPFIVPLSVIICPDRVGVFLDYEACTVSFFNITNHGFLIYKFSHCSFSQPVFPYLNPRKCGVPMTLCSPSS [human TRIM5α, 330-340 = QAPGTLYTFQTLV]”, the enrichment came to 0.0903 ± 0.014.
